This is one part of the list. The main result of the screen is listed elsewhere. These columns were measured beside it and carry no call. The list favours compounds with an active or inconclusive main result.
Assay: oleate-induced lipid droplet accumulation in AML12 cells – imaging, high-throughput imaging, BODIPY stain, primary screen (AID 1656);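 note: cells counted across two imaged fields per well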
Conditions: AML12 mouse hepatocytes, oleate lipid droplets, measured here: cell count, cytotoxicity flag, at 6.5 µM
In short: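 Assay system: AML12 mouse liver cells | Compound dosing: One dose, 6.5 µM compound | Read-out basis: Droplet intensity reduction, % inhibition | Measured by: Fluorescence imaging, 20x objective, two fields per well | Schedule: Overnight treatment with compound plus oleate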

SMILES	cell count
CC1(C)S[C@@H]2[C@H](NC(=O)[C@H](C(=O)O)c3ccsc3)C(=O)N2[C@H]1C(=O)O	291 cells
O=C(Cc1cccc2ccccc12)Nc1c(F)cccc1F	844 cells
CCCCn1c(N)c(-c2nc3ccccc3s2)c2c([N+](=O)[O-])nn(CC)c(=O)c21	727 cells
CCOC(=O)CSc1c(-c2cccs2)[nH]c2ccccc12	785 cells
CCN(CC)c1ccc(/C=C2\CCC(/C=C(\C#N)C(=O)Nc3ccccc3F)=C2N2CCOCC2)cc1	651 cells
COc1ccc(OC)c(CCNC(=O)C(C)n2nc(C)c3c(C)n(-c4ccc(C)cc4)nc3c2=O)c1 (configuration not stated)	677 cells
CCCC1O[C@@H]2C[C@H]3[C@@H]4CCC5=CC(=O)C=C[C@]5(C)[C@H]4[C@@H](O)C[C@]3(C)[C@]2(C(=O)CO)O1 (some centres not stated)	663 cells
COc1ccc(C(=O)CCC(=O)Nc2ccc(N3CCCCC3)cc2)cc1OC	796 cells
CN1c2ccccc2C2(C)CCCC3=Cc4cccc([N+](=O)[O-])c4OC312 (configuration not stated)	250 cells
CN(C)Cc1ccc(O)c(CCc2ccccc2)n1	750 cells
Cc1ccc2nc(Nc3ccc(F)cc3)c3nncn3c2c1	811 cells
CN1CCN(c2ccccc2NC(=S)NC(=O)c2cc3ccccc3o2)CC1	47 cells
CCOc1ccc(CCNC(=O)C2CC(=O)N(Cc3ccc(OC)cc3)C2)cc1OCC (configuration not stated)	713 cells
CCOc1ccc(CCNC(=O)C2(c3ccccc3)CC2)cc1OCC	719 cells
COC(=O)c1ccc(-c2noc(CN(C)CC3CCCCO3)n2)cc1 (configuration not stated)	455 cells
Cc1cccc(NS(=O)(=O)c2ccc(-c3cnc(C4CC4)o3)cc2)c1C	229 cells
C/C(N)=C(/C#N)C(=O)CSc1nnc(Nc2cccc(C)c2)s1	712 cells
CCN1CCN(c2c(/C=C3\SC(=S)N(Cc4ccco4)C3=O)c(C)c(C#N)c(=O)n2C)CC1	751 cells
CC(=O)Nc1ccc(S(=O)(=O)Nc2nc3ccccc3nc2N2CCc3ccccc3C2)cc1	264 cells
CCNC(=S)N1CCc2cc(OC)c(OC)cc2C1COc1ccc(F)cc1 (configuration not stated)	687 cells
Cc1ccc(C(=O)NCCNC(=O)c2ccc(C)nc2)cc1	802 cells
CCN(CC(=O)Nc1ccccc1C(F)(F)F)C(=O)c1cc(-c2cccs2)nn1-c1ccccc1	829 cells
CC(/C=N/NC(=O)c1n[nH]c2c1CCC2)=C\c1ccccc1	256 cells
COc1ccc(CCNC(=O)CC(c2ccccc2)c2cc(C)ccc2O)cc1OC (configuration not stated)	820 cells
CCN1CC(CN(C)Cc2nc(-c3ccc(C(F)(F)F)cc3)no2)CC1=O (configuration not stated)	182 cells
CCC(C(=O)NCCc1ccccc1OC)n1nc(C)c2c(C)n(-c3ccccc3)nc2c1=O (configuration not stated)	714 cells

SMILES	cell count
COc1ccc(S(=O)(=O)N2CCOC2CNC(=O)C(=O)NCCc2ccc(OC)c(OC)c2)cc1C (configuration not stated)	235 cells
Cc1cccc(C)c1NS(=O)(=O)c1ccc(-c2cnc(C3CC3)o2)cc1	228 cells
O=c1cc(-c2cccc(F)c2)[nH]c2ccccc12	166 cells
CCCCCCn1c(SCC(=O)Nc2cc(C)on2)nc2ccccc2c1=O	615 cells
COc1cccc2c1C(=O)c1c(O)c3c(c(O)c1C2=O)C[C@@](O)(C(C)=O)C[C@@H]3O[C@H]1C[C@H](N)[C@H](O)[C@H](C)O1	235 cells
CCOc1ccccc1C(=O)N1CCN(c2cccc(Cl)c2)CC1	126 cells
Cc1ccc(NC(=O)C2CCCN(S(=O)(=O)c3c(C)noc3/C=C/N(C)C)C2)cc1F (configuration not stated)	768 cells
CCCN(CCC)c1ccc(CC(=O)NC(C)Cc2ccccc2)cc1 (configuration not stated)	713 cells
COc1ccc(CNC(=O)N2CCN(S(=O)(=O)c3ccc(C)cc3C)CC2)cc1	825 cells
c1cc[n+](CCC[n+]2ccccc2)cc1	832 cells
Cc1ccc(C(=O)Nc2ccccc2C(=O)NCc2cccnc2)cc1	683 cells
Cc1cc(C)n2nc(C(=O)N/N=C/c3c4ccccc4cc4ccccc34)nc2n1	581 cells
N/C(=N\c1nc2c(c(=O)[nH]1)CCCC2)Nc1ccc(Oc2ccccc2)cc1	731 cells
CC(C)(C)c1ccc(S(=O)(=O)Nc2ccc(Cc3ccncc3)cc2)cc1	613 cells
COc1cccc(N2CCN(C(=O)c3ccc(CS(=O)c4ccccc4Cl)o3)CC2)c1 (configuration not stated)	278 cells
COc1ccc(OCC(=O)OCC(=O)N2CC(=O)Nc3ccccc32)cc1	264 cells
CCC(C)(C)NC(=O)C(c1ccc(OC)cc1)N(Cc1ccccc1)C(=O)CCC(=O)Nc1cc(C)on1 (configuration not stated)	807 cells
CCC1=Nc2cc(C(=O)NCc3ccco3)ccc2Sc2ccc(C)cc21	157 cells
COc1ccccc1/C=C/C(=O)NCC(=O)N/N=C/c1cc(Br)ccc1OC	768 cells
O=C(NC(=S)Nc1ccccn1)c1ccccc1	739 cells
Cc1ccc(NC2=C(NCCO)C(=O)c3ccccc3C2=O)cc1	704 cells
CCOC(=O)c1sc2cc([N+](=O)[O-])cc(SCCO)c2c1N	620 cells
COC(=O)c1[nH]c2c(c1C)C(=O)CC(c1cccs1)C2 (configuration not stated)	291 cells
COc1ccccc1NC(=O)N1CCCC1C(=O)Nc1ccc2c(c1)OCO2 (configuration not stated)	736 cells
Nc1nc(-c2ccccc2)cc(N2CCCCC2)n1	299 cells
CCOc1ccc(CCNC(=O)c2cc3sc(Cl)cc3n2C)cc1OCC	846 cells

SMILES	cell count
COc1cc(C2N3CC4(C)CN2CC(C)(C3)C4)ccc1O (configuration not stated)	647 cells
CN(C)c1nc(N/N=C/c2c[nH]c3ccccc23)nc(N2CCOCC2)n1	686 cells
Cc1cc(C)cc(C(=O)N2CC(=O)Nc3ccccc32)c1	260 cells
CCOc1cc(/C=N\Nc2nc(Nc3ccccc3)nc(N3CCOCC3)n2)ccc1OC(=O)c1ccco1	587 cells
CC(C)NC(=S)N1CCN(S(=O)(=O)c2cccc(C(F)(F)F)c2)CC1	270 cells
Cc1cc(Br)cc(C)c1NC(=O)c1ccc(C#N)cc1F	213 cells
CCOc1ccc(CCNC(=O)c2nnc(Cc3ccc(F)cc3)o2)cc1OCC	695 cells
CC(/C=N/NC(=O)c1cc(-c2ccc(Cl)cc2)nc2ccccc12)=C\c1ccco1	284 cells
CCOC(=O)CN=C/C(C(=O)Nc1nccs1)=C(/C)O	220 cells
CC(=O)c1ccc(Nc2cc(C)nc3c(C)cccc23)cc1	214 cells
Cc1ccc(NC(=O)/C=C/c2ccco2)nc1	169 cells
COc1ccc(CCNC(=O)CCc2cn(C)c3ccccc23)c(OC)c1OC	792 cells
Cc1nc(Nc2ccc(O)cc2)c2c3c(sc2n1)CCCC3	684 cells
COc1cccc(NC(=O)CSc2nc3ccccc3nc2N2CCCC2)c1	737 cells
COCCOC(=O)c1[nH]c2c(c1C)C(=O)CC(c1cccs1)C2 (configuration not stated)	286 cells
CCC(C)(C)NC(=O)C(c1ccc(OC)cc1)N(CC1CCCO1)C(=O)CCC(=O)Nc1cc(C)on1 (configuration not stated)	683 cells
Cc1cccc(NC(=O)Cc2coc3ccc4ccccc4c23)n1	720 cells
CC(Sc1nnc(-c2ccccc2)c(-c2ccccc2)n1)C(=O)N1CCc2ccccc21 (configuration not stated)	646 cells
COc1cc2ncnc(Nc3cccc(Cl)c3)c2cc1OC	437 cells
Cc1ccc(NC(=O)CSc2nc3ccccc3nc2N2CCCC2)cc1	732 cells
CN(C)c1ccc(/C=N/OC(=O)Nc2ccccc2Cl)cc1	198 cells
Cc1ccc(N=Nc2ccc3ccccc3c2O)cc1	834 cells
Cc1ccc(C(=O)c2cc([N+](=O)[O-])ccc2N2CCCCC2)cc1C	222 cells
CCC(=NCCc1c(C)[nH]c2ccc(C)cc12)C1=C(O)CC(c2ccccc2)CC1=O (configuration not stated)	179 cells
CCOc1ccc2nc(NC(=O)CSc3nc4ccccc4c(=O)n3Cc3ccco3)sc2c1	666 cells
COc1ccc(/C=C(\NC(=O)c2ccc(C)cc2)C(=O)NCCN2CCOCC2)cc1	44 cells

SMILES	cell count
COc1cc(C2C(C#N)=C(N)Oc3cc4c(cc32)OCO4)cc(OC)c1OC (configuration not stated)	207 cells
Cc1ccc(CNC(=O)c2ccc3nc4[nH]c5ccccc5c4nc3c2)cc1	626 cells
CCOc1ccc(CCNC(=O)Cn2nc(C)n3cccc3c2=O)cc1OCC	708 cells
O=C(Nc1nc(-c2ccccc2)cs1)C1CCCCN1S(=O)(=O)c1ccc(Cl)cc1 (configuration not stated)	787 cells
COc1ccc(Cl)cc1NC(=O)CN(C)C(=O)Cc1ccc2c(c1)CCC2	828 cells
Cc1cc(C)n(-c2nc(N(c3ccccc3)c3ccccc3)nc(-n3nc(C)cc3C)n2)n1	682 cells
CCC(C)C(NC(=O)c1ccccc1NC(=O)c1ccc(OC)cc1)C(=O)NCc1ccco1 (configuration not stated)	720 cells
Cc1ccc(C)c(NC(=O)Cn2cc(C(=O)C3CC3)c3ccccc32)c1	816 cells
Fc1ccc(Br)cc1C1C=C(c2ccc(Br)s2)Nc2ncnn21 (configuration not stated)	228 cells
N#CC1=C(N)OC2=C(CCc3ccccc32)C1c1ccccc1 (configuration not stated)	305 cells
Cc1c(Cl)cccc1N(CC(=O)NC(C)c1ccccc1)S(C)(=O)=O (configuration not stated)	774 cells
c1ccc(NCc2ccncc2)cc1	917 cells
O=C(N/N=C/c1cn(-c2ccccc2)nc1-c1cc2ccccc2o1)c1ccccc1Br	702 cells
CCOc1ccc(CCNC(=O)CCc2nc(-c3ccc(OC)cc3)no2)cc1OCC	737 cells
Cc1cccc(C(C(=O)NC2CCCC2)N(C(=O)c2csnn2)C2CCCC2)c1 (configuration not stated)	794 cells
Cc1cccc(N(C(=O)c2nsc(Cl)c2Cl)C(C(=O)NC2CCCC2)c2ccc(O)cc2)c1C (configuration not stated)	293 cells
CCOc1ccc(CN(C)C(=O)CNC(=O)Cc2cccc3ccccc23)cc1	770 cells
CSc1nc2ccccc2n1CC(=O)Nc1c(C)cccc1C	709 cells
Cc1ccc(-n2cccc2/C=C2/NC(=O)N(CC(=O)Nc3cccc(C)c3)C2=O)cc1	589 cells
O=C(CNc1cc(S(=O)(=O)N2CCCC2)ccc1OCC(F)(F)F)Nc1cccc(C(F)(F)F)c1	639 cells
O=C(NC1CCCc2c1cnn2-c1ccccc1F)c1ccccn1 (configuration not stated)	742 cells
Fc1ccc(-c2cnn3c(-c4cccs4)ccnc23)cc1	700 cells
Cc1ccccc1N1CCN(C(=S)c2ccc(-c3ccc([N+](=O)[O-])cc3)o2)CC1	711 cells
CCCCCCCCn1c(N2CCN(c3cccc(Cl)c3)CC2)nc2c1c(=O)[nH]c(=O)n2C	794 cells

— PubChem BioAssay AID1656 (Sanford-Burnham Center for Chemical Genomics, 2009)
